{
  "source": "PubChem BioAssay AID504832",
  "about": "(National Center for Advancing Translational Sciences (NCATS), 2011)",
  "note": "Screen size: about 310,000 compounds; about 18,000 (5.8%) were called active. This list was built around the results that the source calls inconclusive (neither active nor inactive); the mix of calls is not that of the screen. The call rests on the fitted dose curve; in most records, active means well fitted inhibition curve with a large enough effect; inconclusive means small, poorly fitted or top-dose-only effect, or another doubt; inactive means no such curve, though single readings can be large or run the other way. Potencies of inconclusive entries are left out as doubtful fits. Potency means the concentration at half of the fitted maximal effect; tags describe the fitted curve by direction and shape.",
  "data": [
    {"assay": "Primary qHTS for delayed death inhibitors of the malarial parasite plastid, 48 hour incubation", "details": "P. falciparum luciferase growth in erythrocytes; series mostly up to 28.7 µM", "in_short": "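First compound was added to culture medium, then infected red cells at 0.1% parasitemia and 2% hematocrit (final). After incubation at 37 C under 5% CO2, luciferase detection reagent was dispensed and light output recorded.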", "values": [
      {"smiles": "O=C(CN1CCCC1c1cccs1)Nc1cccc(S(=O)(=O)N2CCCC2)c1", "note": "(stereo not drawn)", "Potency": "inconclusive [inhibitor, single point]"},
      {"smiles": "CC(=O)c1cccc(NC(=O)CN(C)Cc2ccc(OC(F)F)cc2)c1", "Potency": "inconclusive [inhibitor, full curve, poor fit]"},
      {"smiles": "O=c1cc(O)c2ccccc2n1Cc1ccccc1Cl", "Potency": "inconclusive [inhibitor, partial curve, poor fit]"},
      {"smiles": "CCC1(c2ccccc2)NC(=O)N(CC(=O)Nc2ccc(S(=O)(=O)N3CC(C)CC(C)C3)cc2)C1=O", "note": "(stereo not drawn)", "Potency": "inconclusive [inhibitor, single point]"},
      {"smiles": "Cc1ccc(NS(=O)(=O)c2cc3c4c(c2)CC(=O)N4CCC3)cc1C", "Potency": "active: 10.4 µM"},
      {"smiles": "COc1ccc(S(=O)(=O)N2CCN(C(=O)C3CC3)CC2)cc1Br", "Potency": "inconclusive [inhibitor, single point]"},
      {"smiles": "COc1cccc(/C=C(/CC(=O)Nc2ccc(N3CCOCC3)cc2)c2nc3ccccc3s2)c1", "Potency": "inconclusive [inhibitor, single point]"},
      {"smiles": "CCCOC(=O)c1ccc(Nc2cc(C)nc3ncnn23)cc1", "Potency": "active: 8.28 µM"},
      {"smiles": "CCCCCCCOc1ccc(-c2ccc(C#N)cn2)cc1", "Potency": "inactive"},
      {"smiles": "COc1cccc(/C=C2\\Oc3cc(OCC(=O)N4CCCC4)ccc3C2=O)c1OC", "Potency": "active: 13.1 µM"},
      {"smiles": "COc1cccc(C(=O)Nc2cc3c(cc2Cl)OCCCO3)c1", "Potency": "inactive"},
      {"smiles": "COc1cc(CNc2ccc(C)c(C)c2)cc(OC)c1OC", "Potency": "inconclusive [inhibitor, partial curve, poor fit]"},
      {"smiles": "O=C1NC(=O)C(CCc2ccncc2)(Cc2cccc(Cl)c2Cl)C(=O)N1c1ccc(Br)cc1", "note": "(stereo not drawn)", "Potency": "inconclusive [inhibitor, single point]"},
      {"smiles": "COc1ccc(CNC(=O)CN2CCC(C(=O)c3ccc(OC)cc3)CC2)cc1", "Potency": "inconclusive [inhibitor, single point]"},
      {"smiles": "CCCC(C)C(=O)Nc1ccncc1", "note": "(stereo not drawn)", "Potency": "inconclusive [inhibitor, partial curve, poor fit]"},
      {"smiles": "Cc1cccc(CN2CCN(Cc3nc4c(s3)CCCC4)CC2CCO)n1", "note": "(stereo not drawn)", "Potency": "inactive"},
      {"smiles": "COc1cc(C(=O)Nc2cc(C)c(OCC(=O)N3CCOCC3)c(C)c2)cc(OC)c1OC", "Potency": "inconclusive [inhibitor, single point]"},
      {"smiles": "COc1cccc(-c2csc(N3CCN(C(=O)Nc4ccc(F)cc4)CC3)n2)c1", "Potency": "inconclusive [inhibitor, partial curve, poor fit]"},
      {"smiles": "COc1ccc2c(c1)C(=O)/C(=C/C=C/c1ccccc1)CC2", "Potency": "inconclusive [inhibitor, partial curve, poor fit]"},
      {"smiles": "Cc1ccc(C2CC(c3cccs3)=NN2C(=O)c2ccco2)o1", "note": "(stereo not drawn)", "Potency": "inconclusive [inhibitor, single point]"},
      {"smiles": "CN(c1cccc(NC(=O)c2ccc(Cl)c(S(=O)(=O)N3CCOCC3)c2)c1)S(C)(=O)=O", "Potency": "inconclusive [inhibitor, partial curve]"},
      {"smiles": "COc1ccc(-n2cc(CN(C)C(C)c3ccncn3)c(-c3cccc(F)c3)n2)cc1", "note": "(stereo not drawn)", "Potency": "active: 10.4 µM"},
      {"smiles": "CCN(CC)c1ccc(C=C2C(=O)OC3(CCCCC3)OC2=O)cc1", "Potency": "inactive"},
      {"smiles": "COc1ccc(/C=C(/C(=O)Nc2ccccc2C(=O)N2CCCC2)c2ccccc2)cc1", "Potency": "active: 6.57 µM"},
      {"smiles": "COc1cccc(C2=CC(c3ccccc3)n3ncnc3N2)c1", "note": "(stereo not drawn)", "Potency": "inconclusive [inhibitor, partial curve, poor fit]"},
      {"smiles": "Cc1cc(N/N=C/c2ccncc2)c([N+](=O)[O-])cc1[N+](=O)[O-]", "Potency": "inconclusive [inhibitor, single point]"},
      {"smiles": "CCN(CC)S(=O)(=O)c1ccc(Oc2ccccc2OC)cc1", "Potency": "inconclusive [inhibitor, partial curve, poor fit]"},
      {"smiles": "Cc1ccc(N(CC(=O)NCc2ccc(F)cc2)C(=O)CCC(=O)Nc2ccccn2)cc1C", "Potency": "inactive"},
      {"smiles": "O=C(CCl)N=c1sccn1Cc1cccc2ccccc12", "Potency": "inconclusive [inhibitor, full curve, poor fit]"},
      {"smiles": "COc1ccccc1CNC(=O)c1cc(-c2ccccc2C)nn1CC1CC(c2cccnc2)=NO1", "note": "(stereo not drawn)", "Potency": "inconclusive [inhibitor, single point]"},
      {"smiles": "CCOC(=O)C1=C(C)N(C)C(=O)C1CC(=O)O", "note": "(stereo not drawn)", "Potency": "inactive"},
      {"smiles": "O=C(CN1CCN(CC(=O)Nc2ccc(F)cc2)CC1)NCC1(N2CCOCC2)CCCCC1", "Potency": "inconclusive [inhibitor, single point]"},
      {"smiles": "CC(=O)Nc1cccc(NC(=O)COc2ccc3c(c2)CCC3)c1", "Potency": "inactive"},
      {"smiles": "O=C(c1ccc2nc[nH]c2c1)N1CCN(c2cccc(Cl)c2)CC1", "Potency": "active: 13.1 µM"},
      {"smiles": "Cc1ccc(NC(=O)N2CCc3ccccc32)cc1C", "Potency": "inactive"},
      {"smiles": "CCSc1nnc(NC(=O)c2cccc(OCc3c(C)noc3C)c2)s1", "Potency": "inconclusive [inhibitor, partial curve, poor fit]"},
      {"smiles": "FC(F)(Cl)c1nnc2ccc(Sc3ccccn3)nn12", "Potency": "inconclusive [inhibitor, partial curve, poor fit]"},
      {"smiles": "CCN(CC)c1cccc(OC2=NS(=O)(=O)c3ccccc32)c1", "Potency": "inconclusive [inhibitor, single point]"},
      {"smiles": "CCn1ncc(CN2CCC(C(=O)Nc3cccc(-c4cccc(F)c4)c3)CC2)c1C", "Potency": "inconclusive [inhibitor, single point]"},
      {"smiles": "CC(C)CC1(C)N=C(c2ccccc2)C(=S)N1", "note": "(stereo not drawn)", "Potency": "inconclusive [inhibitor, single point]"},
      {"smiles": "O=C(c1ccco1)N(CCC(c1ccccc1)c1ccco1)Cc1ccccc1", "note": "(stereo not drawn)", "Potency": "inconclusive [inhibitor, single point]"},
      {"smiles": "CCOc1cc2[nH]c(=O)n(CCCN3CCN(c4ccc(OC)cc4)CC3)c(=O)c2cc1OCC", "Potency": "inconclusive [inhibitor, partial curve, poor fit]"},
      {"smiles": "O=C(CNC(=O)OCc1ccccc1)NC1CCCCCC1", "Potency": "inactive"}
    ]}
  ]
}
